From the supplement of paper PMC10126150
Sequences with one replicate were seen in a single cluster, so their values are uncertain.
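Note: ATP exposure 15 min at 22 °C before imaging.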

Each sequence was assayed on ATP (assay: switch fluorescence ratio, 500 uM ATP over buffer (Cy3 cluster intensity, sum of 5 cycles each) (fold (ratio)); higher = stronger signal-on switching upon ATP binding; sequences stand for … in TCGTCGGCAGCGTCAGATGTGTATAAGAGACAGTTTTTTTTTTTTTTTTTTTTTTTTT…TC). Details: aptamer strand: ATP DNA aptamer (quencher-CACCTGGGGGAGTATTGCGGAGGAAGG + anchor), 100 nM annealed; ATP concentration: 500 uM; one replicate.
Outline: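 The fluorescence ratio divides summed target-cycle Cy3 intensity by summed buffer-cycle Cy3 intensity for each cluster and is averaged per switch-domain sequence. Cy3-labelled switching-strand clusters on a modified Illumina MiSeq flow-cell were annealed to 100 nM quencher-labelled ATP aptamer, then imaged in selection buffer and again after 15 min with 500 uM ATP at 22 °C. Five such cycles were run, with NaOH stripping and re-annealing between them, and clusters outside 100-1000 RFU were excluded.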
TGCACCAGGG was tested, and the switch fluorescence ratio was 1.7. TGCACCGGGA was tested, and the switch fluorescence ratio was 1. Sequence TGCACGACTA has a switch fluorescence ratio of 1.04. Work on TGCACTATTT yielded a switch fluorescence ratio of 0.993. For TGCAGAATTC, the switch fluorescence ratio was 1.23. In the case of TGCAGGAAGC, the switch fluorescence ratio was 0.965. TGCATAAGAC showed a switch fluorescence ratio of 1.36. For TGCATAAGTT, the switch fluorescence ratio was 1.01. Work on TGCATAGGCG yielded a switch fluorescence ratio of 1.06. TGCATAT gave a switch fluorescence ratio of 1.1. In the case of TGCATCACTA, the switch fluorescence ratio was 1. TGCATGAATT showed a switch fluorescence ratio of 0.984. TGCATGGCC gave a switch fluorescence ratio of 0.959. TGCATGGGAT gave a switch fluorescence ratio of 0.985. With TGCATGTAAT the switch fluorescence ratio was 1.01. Work on TGCATTGTGG yielded a switch fluorescence ratio of 0.99. Sequence TGCATTTAGC has a switch fluorescence ratio of 1.05. With TGCATTTTCC the switch fluorescence ratio was 1.04. With TGCCAAACAG the switch fluorescence ratio was 1.01. TGCCAATAGC was tested, and the switch fluorescence ratio was 1.05. With TGCCACATCG the switch fluorescence ratio was 1.02. In the case of TGCCACGATT, the switch fluorescence ratio was 1.02. TGCCAGATCA gave a switch fluorescence ratio of 0.98. For TGCCAGTCCG, the switch fluorescence ratio was 0.989. In the case of TGCCATGCCC, the switch fluorescence ratio was 0.991. TGCCATTCGT gave a switch fluorescence ratio of 1. Work on TGCCATTGAT yielded a switch fluorescence ratio of 1.04. For TGCCCCCCCC, the switch fluorescence ratio was 1.12. With TGCCGACCCA the switch fluorescence ratio was 1.05. TGCCGCCGTC showed a switch fluorescence ratio of 0.972. With TGCCGGAAGC the switch fluorescence ratio was 0.99. With TGCCGGATAC the switch fluorescence ratio was 1.1. TGCCGGCGGC gave a switch fluorescence ratio of 1.03. TGCCGGGACG was tested, and the switch fluorescence ratio was 1.03. With TGCCGTAC the switch fluorescence ratio was 1.02. TGCCGTACCC showed a switch fluorescence ratio of 1.03. With TGCCGTAT the switch fluorescence ratio was 0.982. In the case of TGCCGTATTG, the switch fluorescence ratio was 1. For TGCCGTGTG, the switch fluorescence ratio was 0.991. For TGCCGTTGGC, the switch fluorescence ratio was 0.957. Sequence TGCCTCATTC has a switch fluorescence ratio of 1.05. TGCCTCGGTA was tested, and the switch fluorescence ratio was 0.976. For TGCCTCTGCA, the switch fluorescence ratio was 1.76. Work on TGCCTGTCAT yielded a switch fluorescence ratio of 1.04. Work on TGCGACCTGC yielded a switch fluorescence ratio of 1.02. With TGCGAGATCG the switch fluorescence ratio was 1.02. For TGCGAGCAGT, the switch fluorescence ratio was 1.01. Sequence TGCGATAGCT has a switch fluorescence ratio of 1.04. Sequence TGCGATGCCT has a switch fluorescence ratio of 1.04. TGCGATGTAA gave a switch fluorescence ratio of 1.02. TGCGATTGGA showed a switch fluorescence ratio of 0.993. TGCGCCCGT gave a switch fluorescence ratio of 0.993. TGCGGGAGCG was tested, and the switch fluorescence ratio was 0.988. In the case of TGCGGGCAAA, the switch fluorescence ratio was 0.978. In the case of TGCGGGCGG, the switch fluorescence ratio was 1.01. TGCGGGGGAC was tested, and the switch fluorescence ratio was 1.02. TGCGGGTCTT showed a switch fluorescence ratio of 0.966. With TGCGGGTGTA the switch fluorescence ratio was 1.02. For TGCGGTATTA, the switch fluorescence ratio was 1.01. With TGCGGTCCCG the switch fluorescence ratio was 1.02. In the case of TGCGGTGGTG, the switch fluorescence ratio was 0.934. TGCGTACGAT showed a switch fluorescence ratio of 1.02. With TGCGTCTGGT the switch fluorescence ratio was 1.03. Sequence TGCGTGCCTA has a switch fluorescence ratio of 1.03. TGCGTGTCAG showed a switch fluorescence ratio of 0.997. With TGCGTGTGCG the switch fluorescence ratio was 1.02. Work on TGCGTGTTTA yielded a switch fluorescence ratio of 1. For TGCGTTCCAA, the switch fluorescence ratio was 1.03. TGCGTTGATC was tested, and the switch fluorescence ratio was 1.02. TGCTAACGTC was tested, and the switch fluorescence ratio was 1.01. With TGCTACCATC the switch fluorescence ratio was 1.07. Work on TGCTACTCCG yielded a switch fluorescence ratio of 1.39. In the case of TGCTACTTCT, the switch fluorescence ratio was 1.01. Sequence TGCTATAGC has a switch fluorescence ratio of 1.01. TGCTATAGGT gave a switch fluorescence ratio of 0.99. Sequence TGCTATCTCA has a switch fluorescence ratio of 1.07. Work on TGCTATGAGA yielded a switch fluorescence ratio of 0.981. TGCTATTAAG was tested, and the switch fluorescence ratio was 1.01. Work on TGCTCAAGGA yielded a switch fluorescence ratio of 1.03. Sequence TGCTCGCGCG has a switch fluorescence ratio of 0.975. In the case of TGCTCTGTCC, the switch fluorescence ratio was 1.08. With TGCTCTGTTA the switch fluorescence ratio was 1.04. In the case of TGCTCTTTTG, the switch fluorescence ratio was 0.999. For TGCTGAATTT, the switch fluorescence ratio was 1.02. With TGCTGATCTA the switch fluorescence ratio was 0.993. Sequence TGCTGCGCAG has a switch fluorescence ratio of 0.996. TGCTGTAGTA showed a switch fluorescence ratio of 1.02. TGCTGTATTG gave a switch fluorescence ratio of 0.948. In the case of TGCTGTGATG, the switch fluorescence ratio was 0.944. For TGCTTAAAAT, the switch fluorescence ratio was 0.973. Work on TGCTTAAGAG yielded a switch fluorescence ratio of 1.03. Sequence TGCTTCCAA has a switch fluorescence ratio of 1.06. For TGCTTGGATC, the switch fluorescence ratio was 1.02. Work on TGCTTGTCGC yielded a switch fluorescence ratio of 1.05. TGCTTTAAAA gave a switch fluorescence ratio of 0.961. With TGCTTTGGCT the switch fluorescence ratio was 1. TGCTTTTATC showed a switch fluorescence ratio of 1.01. TGCTTTTCAT gave a switch fluorescence ratio of 0.982. Sequence TGGAAAAAGG has a switch fluorescence ratio of 1.13. TGGAAACTGA gave a switch fluorescence ratio of 0.992.
